The record followed here is ChEMBL document CHEMBL4888484, “Replenishing the malaria drug discovery pipeline: Screening and hit evaluation of the MMV Hit Generation Library 1 (HGL1) against asexual blood stage Plasmodium falciparum ,using a nano luciferase reporter read-out” (2022).

Structures are written as SMILES. Hit rate of the full screen: of about 150,000 compounds, about 540 (0.36%) showed an effect of 50% or more. The list shows a part of the results.

For the assay, the system named is Plasmodium falciparum. The experiment in a line: Primary screen in NF54 nanoGlo assay, in single point, at 2uM, 72h; a lower Z score goes with more inhibition. It counts as functional, Erythrocyte. The conditions noted are these: timepoint 72 hour.
Usually % Inhibition stands for the relative decrease from the control value, in per cent. Regarding `N#Cc1ccsc1C(=O)N1CCC2(CCCCC2)C1`, the “% Inhibition” value is reported as 34% and the Z score was -3.88.
For `CC(=O)Nc1ccn([C@H](NC(=O)c2ccccc2)C(Cl)(Cl)Cl)c(=O)n1`, in that order: -8% and 0.95.
For `Cc1ccnc(N2CCN(c3ccc(N)nc3)CC2)c1C#N` the same measures were -16% and 1.66.
For `CC(=O)Nc1cccc(-c2nc3ncncc3[nH]c2=O)c1`, in that order: 6% and -0.72.
For the compound `c1ccc(Oc2ccc(CN3CCc4nc[nH]c4C34CCOCC4)nn2)cc1`, the “% Inhibition” value is reported as -6% and the Z score came to 0.96.
For `CCNc1nc(C(=O)N[C@@H](CC)CC#N)cs1`, in that order: 4% and -0.59.
For `Cc1nn(-c2ccccc2)c(Oc2ccc(Cl)cc2)c1CN(C[C@H]1CCCO1)C(=O)C1CCC1`, the “% Inhibition” value was determined as 5% and the Z score is listed as -0.66.
For `COCCCNC(=O)[C@]1(C)Cn2nc(-c3ccccc3)cc2C(=O)N1Cc1cccc(OC)c1`, in that order: -2% and 0.38.
For `O=C(NC[C@]12CCC[C@H]1C2)c1ccn(CCn2cccn2)n1`, in that order: -9% and 1.27.
For `CCC(=O)N1CCN(CC(OC)OC)CC1`, in that order: -3% and 0.32.
For the compound `C[C@H]1CCCN(C(=O)NCC(C)(C)C(N)=O)CC1`, the “% Inhibition” value was 4% and the Z score is reported as -0.82.
For `Cc1cc(C)c2c(C(=O)N[C@@H](C)Cc3ccncc3)cc(-c3cnn(C)c3)nc2c1` the same measures were 9% and -1.1.
Take `Cc1ccc(-c2cc(O)cc(CC[C@H]3CCCCN3)c2)c(C)n1`: the “% Inhibition” value was 61% and the Z score is -8.76.
For `Cc1ccc(Cl)cc1S(=O)(=O)N1Cc2cncnc2C1` the same measures were 0% and -0.04.
For `O=C(COCC(F)(F)F)NC1CCCCC1n1cccn1` (stereo not drawn) the same measures were 3% and -0.42.
For `O=C(Nc1cn[nH]c1)C1CCN(S(=O)(=O)c2ccc3c(c2)CCC3)CC1` the same measures were 5% and -0.84.
In the case of `CC(C)(C)CN1C[C@]23C=C[C@H](O2)C(C(=O)N2CCc4n[nH]cc4C2)C3C1=O` (stereo partly drawn), the “% Inhibition” value worked out at 2% and the Z score is -0.29.
For `Cn1cc(CNC(=O)N2CCN3CCOC[C@@H]3C2)c(C(F)(F)F)n1`, in that order: -18% and 1.53.
For `Nc1nc(CCCNCc2cnc(N3CCCCC3)nc2)cs1` the same measures were 2% and -0.3.
For `CCN1CC(=O)N[C@H]2CN(C(=O)Cc3c(C)noc3C)CC[C@@H]2OCc2cccc(c2)Oc2cccc(c2)CC1=O`, in that order: -1% and 0.13.
In the case of `COc1ccc(OC(F)F)c(CN2CCCO[C@@H](CN)C2)c1`, the “% Inhibition” value was -5% and the Z score amounted to 0.87.
Take `C[C@H](NCc1c2c(nn1C)CCCC2)c1cccc(OC(F)F)c1`: the “% Inhibition” value was found to be 5% and the Z score is given as -0.68.
For `Cn1nc(C(F)(F)F)cc1NC(=O)N1C2CCC1CC1(CC1)C2` the same measures were 5% and -0.86.
For `CN(CCCNC(=O)CCCC1CC1)c1ccccn1` the same measures were -4% and 0.4.
For `CO[C@@H]1CN[C@@H](C(=O)NC(C)c2cnn(Cc3ccccc3)c2)C1` (stereo partly drawn) the same measures were -11% and 1.29.
Take `Cc1ncn(Cc2cncc(F)c2)c1C`: the “% Inhibition” value is -1% and the Z score came out at 0.16.
For `Cc1ccc(N2CCCN(Cc3ccc(OC(F)(F)F)cc3)C2=O)c(NC(=O)OCc2ccccc2)c1` the same measures were 15% and -2.88.
Consider `O=C(c1ccco1)N1CCN(C[C@H](O)c2ccco2)CC1`, for which the “% Inhibition” value is on record as -4% and the Z score came to 0.64.
For `CCNC(=O)CN(CC)C(=O)COc1ccc(Cl)c(Cl)c1`, in that order: -8% and 1.04.
For `CCc1oc(C(=O)O)cc1CN1CCOC[C@H]1c1ccc(OC)cc1`, in that order: -2% and 0.32.
As to `CC[C@@H](Cn1ccnc1)NC(=O)CN1CCOC1=O`, the “% Inhibition” value is recorded as -7% and the Z score turned out to be 1.24.
For `CCNc1ncnc2sc(C(=O)N3CCC[C@H](C)C3)c(C)c12`, in that order: 5% and -0.93.
For `O=C([C@H]1C[C@@H]1C1CC1)N1CCC2(CCOCC2)C1` the same measures were -12% and 2.34.
For `CC(C)(NC(=O)c1cc(C(F)(F)F)ccc1Cl)C(=O)O`, in that order: -9% and 1.26.
On to `Cc1c(C2CCCCC2)noc1NS(=O)(=O)c1ccc(Cl)s1`, for which the “% Inhibition” value amounted to 2% and the Z score is given as -0.33.
On to `CN1CCCC(CNC(=O)c2cnsn2)C1c1cccs1` (stereo not drawn), for which the “% Inhibition” value worked out at 8% and the Z score is recorded as -1.25.
Consider `COc1ccc(-c2nc(OC)cc(OC)n2)cn1`, for which the “% Inhibition” value is on record as -7% and the Z score is reported as 1.05.
For `O=C(c1cccc[n+]1[O-])N1CCC[C@H](C(F)(F)F)C1` the same measures were 0% and 0.02.
For `Cc1ccc(NC(=O)c2nc(-n3ccnc3)ncc2Br)c(C)c1`, in that order: 6% and -0.77.
For `O=S(=O)(NCc1nnc2cc(C(F)(F)F)ccn12)C1CC1`, in that order: 10% and -1.24.
In the case of `O=C1NCCCCCN(Cc2cccnc2)[C@@H]2CN(C(=O)NC3CCCCC3)CC[C@@H]12`, the “% Inhibition” value came out at 7% and the Z score is on record as -0.92.
For `COCCOCC(=O)N1CCC[C@H](c2cccc(C)c2)C1`, in that order: -7% and 1.32.
In the case of `O=C(Cc1cccs1)NC[C@H](O)c1cccs1`, the “% Inhibition” value is reported as -7% and the Z score is listed as 1.17.
For `O=C(Nc1nc2ccccc2[nH]1)c1ccc2ccccc2c1` the same measures were -7% and 0.7.
`O=C(NC(C1CC1)C1CC1)[C@H]1CCCN(C2CCN(Cc3cccnc3)CC2)C1`: the “% Inhibition” value came out at 1% and the Z score was -0.09.
For `CC[C@@H](C(=O)NCc1ccccn1)N1C(=O)CCn2nc(C)cc21`, in that order: -1% and 0.16.
For `CC(=O)N1c2cc(S(=O)(=O)NCc3ccc4c(c3)OCO4)c(Br)cc2C[C@@H]1C` the same measures were 3% and -0.52.
For `COC(=O)[C@]1(C)C[C@H](C(=O)NCC2CC2)[C@H](c2ccccc2Cl)N1C` the same measures were -6% and 0.83.
As to `Cc1ccc(S(=O)(=O)N2C[C@@H](C(=O)NCc3ccc(Cl)cc3)Oc3cc(C)ccc32)cc1`, the “% Inhibition” value was -10% and the Z score was 1.47.
For `CC(C)(C)c1noc(CS(=O)(=O)Cc2cccc3ccccc23)n1`, in that order: -5% and 0.82.
For `Cc1cnc(C(=O)N2CCC[C@H]2c2cccs2)cn1`, in that order: 5% and -0.6.
For `O=C(NCC1CCN(S(=O)(=O)[C@H]2CCS(=O)(=O)C2)CC1)C1CCCC1` the same measures were -1% and 0.07.
In the case of `COCC1(NC(=O)[C@H](C)n2cnc3c(N)ncnc32)CC1`, the “% Inhibition” value is -6% and the Z score is recorded as 0.71.
For `Cc1nc(CCN(C)C(=O)[C@H](C)n2ccnc2C)no1` the same measures were -22% and 2.4.
